In the supplement of paper PMC7125110:
± gives the standard error. Variants at the floor of the assay are shown more often than the library holds them.

B1: glmS ribozyme (parent)
chain: AUAAAAGCGCCAGAACUACAGAAAUGUAGUUGACGAGGAGGAGGUUUAUCGAAUUUUCGGCGGAUGCCUCCAAA

What was measured:
Settings in all cases: with glucosamine-6-phosphate
glucosamine-6-phosphate [1] = variants of: B1; assay: self-cleavage kobs at 40 uM GlcN6P; higher = faster cleavage; RNA array
Method in brief: (§1)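 A hybridised Cy3 probe tracked barcoded ribozyme variants, transcribed in situ by E. coli RNA polymerase on sequenced MiSeq chips, at 37 °C. The variants received 40 μM to 10 mM glucosamine-6-phosphate in HEPES/KCl/Mg(OAc)2 buffer. kobs came from decay fits and kcat and KM from weighted Michaelis–Menten fits.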

glucosamine-6-phosphate [2] = variants of: B1; assay: self-cleavage kobs at 10000 uM GlcN6P; higher = faster cleavage; RNA array
Method in brief: as §1

glucosamine-6-phosphate [3] = variants of: B1; assay: self-cleavage kobs at 2500 uM GlcN6P; higher = faster cleavage; RNA array
Method in brief: as §1

glucosamine-6-phosphate [4] = variants of: B1; assay: self-cleavage kobs at 640 uM GlcN6P; higher = faster cleavage; RNA array
Method in brief: as §1

glucosamine-6-phosphate [5] = variants of: B1; assay: self-cleavage kobs at 160 uM GlcN6P; higher = faster cleavage; RNA array
Method in brief: as §1

Variant	self-cleavage kobs at 40 uM GlcN6P (glucosamine-6-phosphate [1]) [s⁻¹]	self-cleavage kobs at 10000 uM GlcN6P (glucosamine-6-phosphate [2]) [s⁻¹]	self-cleavage kobs at 2500 uM GlcN6P (glucosamine-6-phosphate [3]) [s⁻¹]	self-cleavage kobs at 640 uM GlcN6P (glucosamine-6-phosphate [4]) [s⁻¹]	self-cleavage kobs at 160 uM GlcN6P (glucosamine-6-phosphate [5]) [s⁻¹]
AUAAAAGCGCCAGAACUACAGAAAUGUAGUUGACGAGGAGUAGGUUUAUUGAAUUUUCGGCGGAUGCCUGCAAA [G41U C50U C70G]	< 1e-05	–	–	–	–
AUAAAAGCGCCAGAACUACAGAAAUGUAGUUGACGAGGAGUAGGUUUAUCGAAUUUUAGGCGGAUGUCUCCAAA [G41U C58A C67U]	< 1e-05	< 1e-05	–	–	–
AUAAAAGCGCCAGAACUACAGAAAUGUAGUUGACGAGGAGUAGGUUUAACGAAUGUUCGGCGGAUGCCUCCAAA [G41U U49A U55G]	< 1e-05	< 1e-05	< 1e-05	–	–
AUAAAAGCGCCAGAACUACAGAAAUGUAGUUGACGAGGAGGCGGUUUAUCGAAUUUUCGGCUGAUGCCUGCAAA [A42C G62U C70G]	< 1e-05	< 1e-05	–	–	–
AUAAAAGCGCCAGAACUACAGAAAUGUAGUUGACGAGGAGGCGGUUUAUCGAAUUUUCGGCGAAUGGCUCCAAA [A42C G63A C67G]	< 1e-05	–	–	–	–
AUAAAAGCGCCAGAACUACAGAAAUGUAGUUGACGAGGAGGCGGUUUAUCGAAUUUUCGGCGGAUUCCUCCAAA [A42C G66U]	< 1e-05	–	–	–	–
AUAAAAGCGCCAGAACUACAGAAAUGUAGUUGACGAGGAGGGGGUUUAUCGCAUUUUCGGCGGAUGCCUCCAAA [A42G A52C]	< 1e-05	–	–	–	–
AUAAAAGCGCCAGAACUACAGAAAUGUAGUUGACGAGGAGGGGGUUUAUCGAAUUUUCGGCGGAUGUAUACAAA [A42G C67U C68A C70A]	< 1e-05	–	–	–	–
AUAAAAGCGCCAGAACUACAGAAAUGUAGUUGACGAGGAGGGGGUUUAUCAUAUUUUCGGCGGAUGCCUCCAAA [A42G G51A A52U]	< 1e-05	–	< 1e-05	–	–
AUAAAAGCGCCAGAACUACAGAAAUGUAGUUGACGAGGAGGGGGUUUAUCGAAUCUUCGGCGGAUGCCUCCAAA [A42G U55C]	0.000832 ± 0.00014	0.0147 ± 0.0029	0.0354 ± 0.016	0.0147 ± 0.0051	0.00147 ± 0.00063
AUAAAAGCGCCAGAACUACAGAAAUGUAGUUGACGAGGAGGUGGUUUAUCGAAUUUUCGGCGGAUGCCUCUAAA [A42U C71U]	< 1e-05	0.000129 ± 1.4e-05	0.000122 ± 1.6e-05	4.75e-05 ± 6.4e-06	–
AUAAAAGCGCCAGAACUACAGAAAUGUAGUUGACGAGGAGGUGGUUUAUCGAAUUUUCGGCGUAUGCCUCCAAA [A42U G63U]	< 1e-05	< 1e-05	< 1e-05	–	< 1e-05
AUAAAAGCGCCAGAACUACAGAAAUGUAGUUGACGAGGAGGUGGUUUAGCGACUUUUCGGCGGGUGCCUCCAAA [A42U U49G A53C A64G]	< 1e-05	–	–	–	–
AUAAAAGCGCCAGAACUACAGAAAUGUAGUUGACGAGGAGGAAGUUUAUCGAAUUUCCGGCGGAUGCCUCCAAA [G43A U57C]	< 1e-05	< 1e-05	–	< 1e-05	< 1e-05
AUAAAAGCGCCAGAACUACAGAAAUGUAGUUGACGAGGAGGACGUUUUUCGAAUUUUCGGCGGAUGCCUCCAAA [G43C A48U]	< 1e-05	< 1e-05	< 1e-05	< 1e-05	–
AUAAAAGCGCCAGAACUACAGAAAUGUAGUUGACGAGGAGGACGUUUAUCGAAUUUGCGGCGGAUGCCUCCAAA [G43C U57G]	< 1e-05	< 1e-05	< 1e-05	< 1e-05	–
